Test results reported in publication PMC6664820, “Novel natural and synthetic inhibitors of solute carriers SGLT1 and SGLT2” (Pharmacology Research & Perspectives, 2019).
About 40 (2%) of roughly 1,900 compounds showed an effect of 50% or more. The list shows a part of the results. Residues, ends and D or L forms follow the SMILES beside them. *: point of attachment. For = O=C*

target: human SGLT1 (hSGLT1) (human, UniProt P13866); assay: primary screen, percent of control activity; higher = less effect of the substance; set-up: single well; details: 50 µM
Method in brief: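 Single-point screen at 50 µmol/L in CHO-hSGLT1 cells, with 160 µmol/L 1-NBD-glucose in glucose-free DMEM for 90 min at 37°C. Fluorescence from isopropanol extracts was calibrated, and CHO wild-type uptake was subtracted. Data are percent of uptake without compound.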

Chain of human SGLT1 (hSGLT1) (P13866 whole entry, looked up): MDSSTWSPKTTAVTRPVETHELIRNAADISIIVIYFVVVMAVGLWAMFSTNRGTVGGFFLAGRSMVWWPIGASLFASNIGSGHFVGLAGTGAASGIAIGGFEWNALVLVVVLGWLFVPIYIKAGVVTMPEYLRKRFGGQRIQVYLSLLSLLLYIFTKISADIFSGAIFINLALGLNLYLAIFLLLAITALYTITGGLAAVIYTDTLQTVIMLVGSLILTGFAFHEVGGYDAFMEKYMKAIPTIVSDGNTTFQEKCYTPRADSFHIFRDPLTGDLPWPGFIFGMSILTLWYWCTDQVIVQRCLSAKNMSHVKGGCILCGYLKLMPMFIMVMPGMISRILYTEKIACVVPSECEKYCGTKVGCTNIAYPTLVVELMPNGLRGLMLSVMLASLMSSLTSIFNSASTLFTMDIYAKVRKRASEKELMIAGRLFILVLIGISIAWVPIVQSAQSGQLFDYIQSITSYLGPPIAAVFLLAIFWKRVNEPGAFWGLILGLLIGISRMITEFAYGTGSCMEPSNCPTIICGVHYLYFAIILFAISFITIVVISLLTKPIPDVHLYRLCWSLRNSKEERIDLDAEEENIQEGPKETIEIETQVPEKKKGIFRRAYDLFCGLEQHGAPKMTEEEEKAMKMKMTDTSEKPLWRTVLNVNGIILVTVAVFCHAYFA

| SMILES | NORMALIZED SGLT1 ACTIVITY (%) |
| --- | --- |
| Nc1c2c(nc3ccccc13)CCCC2O.O=C(O)/C=C\C(=O)O (stereo not shown) | 183% |
| CCC(=O)Nc1ccc(Cl)c(Cl)c1 | 280% |
| CNC[C@H](O)c1cccc(O)c1.Cl | 113% |
| C[C@]12CCC3C(CC[C@H]4C[C@H](OS(=O)(=O)[O-])CC[C@]34C)C1CCC2=O.[Na+] (stereo partly shown) | 124% |
| CN(C)CCC(c1ccc(Cl)cc1)c1ccccn1.O=C(O)/C=C\C(=O)O (stereo in doubt) | 85% |
| Cl.OC(c1cc(C(F)(F)F)nc2c(C(F)(F)F)cccc12)C1CCCCN1 (stereo not shown) | 91% |
| NC(=O)CC[C@H](N)C(=O)O | 89% |
| CSCCC(NC=O)C(=O)NC(Cc1ccccc1)C(=O)O (stereo not drawn) (For-Met-Phe-OH; configuration not given here) | 172% |
| CC12CCCC(O)(C1)C1CC(C)(C)C1CC2 (stereo not shown) | 135% |
| CCOC(=O)C(=O)C1(C(=O)OCC)Oc2cc(OC)cc(OC)c2C(=O)C1c1ccccc1 (stereo not shown) | 123% |
| Nc1ncnc2[nH]cnc12 | 116% |
| Cc1cc(C2CCCCC2)n(O)c(=O)c1.NCCO | 182% |
| COc1cccc2c1cc([N+](=O)[O-])c1c(C(=O)O)cc3c(c12)OCO3 | 96% |
| CCCCc1nc(Cl)c(CO)n1Cc1ccc(-c2ccccc2-c2nnn[nH]2)cc1 | 249% |
| CCN(CC)CCNC(=O)c1cc(S(C)(=O)=O)ccc1OC.Cl | 106% |
| CN(C)C(=N)NC(=N)N.Cl | 90% |
| CS(=O)(=O)O.OC(CCN1CCCCC1)(c1ccccc1)c1ccccc1 | 101% |
| CC1OC1P(=O)([O-])[O-].[Ca+2] (stereo not shown) | 120% |
| COc1cc2c(cc1OC)[C@@H]1C(=O)c3ccc4oc(C(C)C)cc4c3O[C@@H]1CO2 | 218% |
| CCN(CC)CCNC(=O)COc1ccc(OC)cc1.Cl | 120% |
| C=C1C[C@]23C[C@@]1(O)CC[C@H]2[C@@]12C=C[C@H](O)[C@@](C)(C(=O)O1)[C@H]2[C@@H]3C(=O)O | 97% |
| O=C(N[C@H](CO)[C@H](O)c1ccc([N+](=O)[O-])cc1)C(Cl)Cl | 159% |

| SMILES | NORMALIZED SGLT1 ACTIVITY (%) |
| --- | --- |
| C[C@@H]1CC2C3CCC4=CC(=O)C=C[C@]4(C)[C@@]3(F)[C@@H](O)C[C@]2(C)[C@@]1(O)C(=O)CO (stereo partly shown) | 153% |
| CC(=O)O[C@@H]1C=C[C@@]2(C)C(C[C@@H](OC(C)=O)[C@@]3(C)C4=CC(=O)O[C@@H](c5ccoc5)[C@]4(C)CCC23)C1(C)C (stereo partly shown) | 103% |
| CCn1cc(C(=O)O)c(=O)c2cc(F)c(N3CCNCC3)cc21 | 109% |
| COc1ccc(-c2oc3c(CC=C(C)C)c(O[C@@H]4O[C@H](CO)[C@@H](O)[C@H](O)[C@H]4O)cc(O)c3c(=O)c2O[C@@H]2O[C@@H](C)[C@H](O)[C@@H](O)[C@H]2O)cc1 | 93% |
| ClC1=C(Cl)C2(Cl)C3C(Cl)C=CC3C1(Cl)C2(Cl)Cl (stereo not shown) | 57% |
| COc1ccc2cc([C@H](C)C(=O)O)ccc2c1 | 228% |
| NCCCC(=O)O | 108% |
| COc1cc2c(cc1OC)C1C(=O)c3c(O)cc4c(c3OC1CO2)C=CC(C)(C)O4 (stereo not shown) | 283% |
| CC(=O)NC(Cc1ccccc1)C(=O)O (stereo not shown) | 125% |
| CCC[C@H]1CC2=C(C[C@@H](CC)CC3=C1C(=O)OC3=O)C(=O)OC2=O | 118% |
| NC(=O)c1cc([N+](=O)[O-])cc([N+](=O)[O-])c1 | 114% |
| CN[C@@H]1[C@@H](O)[C@@H](O[C@@H]2[C@@H](O)[C@H](O[C@H]3OC(CN)=CC[C@H]3N)[C@@H](N)C[C@H]2N)OC[C@]1(C)O.O=S(=O)(O)O | 102% |
| CC1(O)CC2C(CC1O)C2(C)C (stereo not shown) | 92% |
| Cn1cc[nH]c1=S | 99% |
| CN[C@H](CC(=O)O)C(=O)O | 98% |
| C=C(C)/C=C1/C=CC(=O)C(C)=C1 | 146% |
| CC(CN(C)C)CN1c2ccccc2Sc2ccccc21.O=C(O)C(O)C(O)C(=O)O (stereo not shown) | 45% |
| NC(N)=Nc1nc(CSCC/C(N)=N\S(N)(=O)=O)cs1 | 126% |
| COc1cc(OC)c2c(=O)c(-c3ccccc3)coc2c1 | 336% |
| CC(=O)c1ccc(O)c(CC=C(C)C)c1 | 125% |
| CC1(C)C2CC(=O)[C@]3(C)C(CC[C@@]4(C)[C@H](c5ccoc5)OC(=O)[C@H]5O[C@]543)[C@@]2(C)C(=O)C[C@H]1O (stereo partly shown) | 85% |
